Here are results for 31 molecules from article PMC9911399, “Two distinct binding modes provide the RNA-binding protein RbFox with extraordinary sequence specificity”.

Positions count from the first letter of the chain named. Some of the results follow.

To fix the notation:
T1: RBFOX1 RRM (Homo sapiens, UniProt Q9NWB1 109-208)
T1 sequence: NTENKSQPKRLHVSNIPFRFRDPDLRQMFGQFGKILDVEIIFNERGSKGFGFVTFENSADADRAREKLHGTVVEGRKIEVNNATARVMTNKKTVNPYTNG

B1: AGUAAAU (DNA:RNA)
RNA: GGGAGACCGGAAUUCAGAUUGUCCAGUAAAUUUAAAUCCCGUCGUAGCCACCA
DNA 1: CAATCTGAATTCCGGTCTCCC
DNA 2: TGGTGGCTACGACGGGATT
B2: UUACCAA (DNA:RNA)
RNA: B1 RNA with A25U, G26U, U27A, A28C, A29C, U31A
DNA 1: CAATCTGAATTCCGGTCTCCC
DNA 2: TGGTGGCTACGACGGGATT
B3: UAUGUUG (DNA:RNA)
RNA: B1 RNA with A25U, G26A, A28G, A29U, A30U, U31G
DNA 1: CAATCTGAATTCCGGTCTCCC
DNA 2: TGGTGGCTACGACGGGATT
B4: CAUGCCU (DNA:RNA)
RNA: B1 RNA with A25C, G26A, A28G, A29C, A30C
DNA 1: CAATCTGAATTCCGGTCTCCC
DNA 2: TGGTGGCTACGACGGGATT
B5: CAGGAGU (DNA:RNA)
RNA: B1 RNA with A25C, G26A, U27G, A28G, A30G
DNA 1: CAATCTGAATTCCGGTCTCCC
DNA 2: TGGTGGCTACGACGGGATT
B6: CACUUAU (DNA:RNA)
RNA: B1 RNA with A25C, G26A, U27C, A28U, A29U
DNA 1: CAATCTGAATTCCGGTCTCCC
DNA 2: TGGTGGCTACGACGGGATT
B7: AUGCCCC (DNA:RNA)
RNA: B1 RNA with G26U, U27G, A28C, A29C, A30C, U31C
DNA 1: CAATCTGAATTCCGGTCTCCC
DNA 2: TGGTGGCTACGACGGGATT
B8: AGGCUAU (DNA:RNA)
RNA: B1 RNA with U27G, A28C, A29U
DNA 1: CAATCTGAATTCCGGTCTCCC
DNA 2: TGGTGGCTACGACGGGATT
B9: AGGGACG (DNA:RNA)
RNA: B1 RNA with U27G, A28G, A30C, U31G
DNA 1: CAATCTGAATTCCGGTCTCCC
DNA 2: TGGTGGCTACGACGGGATT
B10: GUCCACC (DNA:RNA)
RNA: B1 RNA with A25G, G26U, U27C, A28C, A30C, U31C
DNA 1: CAATCTGAATTCCGGTCTCCC
DNA 2: TGGTGGCTACGACGGGATT
B11: CCCCGAU (DNA:RNA)
RNA: B1 RNA with A25C, G26C, U27C, A28C, A29G
DNA 1: CAATCTGAATTCCGGTCTCCC
DNA 2: TGGTGGCTACGACGGGATT
B12: ACCACAA (DNA:RNA)
RNA: B1 RNA with G26C, U27C, A29C, U31A
DNA 1: CAATCTGAATTCCGGTCTCCC
DNA 2: TGGTGGCTACGACGGGATT
B13: GCGUUCA (DNA:RNA)
RNA: GGGAGACCGGAAUUCAGAUUGUCCGCGUUCAUUAAAUCCCGUCGUAGCCACCA
DNA 1: CAATCTGAATTCCGGTCTCCC
DNA 2: TGGTGGCTACGACGGGATT
B14: CCACAGC (DNA:RNA)
RNA: B1 RNA with A25C, G26C, U27A, A28C, A30G, U31C
DNA 1: CAATCTGAATTCCGGTCTCCC
DNA 2: TGGTGGCTACGACGGGATT
B15: UGAAUUU (DNA:RNA)
RNA: B1 RNA with A25U, U27A, A29U, A30U
DNA 1: CAATCTGAATTCCGGTCTCCC
DNA 2: TGGTGGCTACGACGGGATT
B16: UUUAGUA (DNA:RNA)
RNA: B1 RNA with A25U, G26U, A29G, A30U, U31A
DNA 1: CAATCTGAATTCCGGTCTCCC
DNA 2: TGGTGGCTACGACGGGATT
B17: GAACGAC (DNA:RNA)
RNA: B1 RNA with A25G, G26A, U27A, A28C, A29G, U31C
DNA 1: CAATCTGAATTCCGGTCTCCC
DNA 2: TGGTGGCTACGACGGGATT
B18: UGGUACU (DNA:RNA)
RNA: B1 RNA with A25U, U27G, A28U, A30C
DNA 1: CAATCTGAATTCCGGTCTCCC
DNA 2: TGGTGGCTACGACGGGATT
B19: CUCCACG (DNA:RNA)
RNA: B1 RNA with A25C, G26U, U27C, A28C, A30C, U31G
DNA 1: CAATCTGAATTCCGGTCTCCC
DNA 2: TGGTGGCTACGACGGGATT
B20: AAUACGU (DNA:RNA)
RNA: B1 RNA with G26A, A29C, A30G
DNA 1: CAATCTGAATTCCGGTCTCCC
DNA 2: TGGTGGCTACGACGGGATT
B21: UCUACAU (DNA:RNA)
RNA: B1 RNA with A25U, G26C, A29C
DNA 1: CAATCTGAATTCCGGTCTCCC
DNA 2: TGGTGGCTACGACGGGATT
B22: AUCUACA (DNA:RNA)
RNA: B13 RNA with G25A, C26U, G27C, U29A
DNA 1: CAATCTGAATTCCGGTCTCCC
DNA 2: TGGTGGCTACGACGGGATT
B23: ACGAGAG (DNA:RNA)
RNA: B1 RNA with G26C, U27G, A29G, U31G
DNA 1: CAATCTGAATTCCGGTCTCCC
DNA 2: TGGTGGCTACGACGGGATT
B24: GUUGUGG (DNA:RNA)
RNA: B13 RNA with C26U, G27U, U28G, C30G, A31G
DNA 1: CAATCTGAATTCCGGTCTCCC
DNA 2: TGGTGGCTACGACGGGATT
B25: GUGAGGG (DNA:RNA)
RNA: B13 RNA with C26U, U28A, U29G, C30G, A31G
DNA 1: CAATCTGAATTCCGGTCTCCC
DNA 2: TGGTGGCTACGACGGGATT
B26: GCCUAUG (DNA:RNA)
RNA: B13 RNA with G27C, U29A, C30U, A31G
DNA 1: CAATCTGAATTCCGGTCTCCC
DNA 2: TGGTGGCTACGACGGGATT
B27: CACAUCC (DNA:RNA)
RNA: B13 RNA with G25C, C26A, G27C, U28A, A31C
DNA 1: CAATCTGAATTCCGGTCTCCC
DNA 2: TGGTGGCTACGACGGGATT
B28: AGAUGCC (DNA:RNA)
RNA: B1 RNA with U27A, A28U, A29G, A30C, U31C
DNA 1: CAATCTGAATTCCGGTCTCCC
DNA 2: TGGTGGCTACGACGGGATT
B29: GCUCAGG (DNA:RNA)
RNA: B1 RNA with A25G, G26C, A28C, A30G, U31G
DNA 1: CAATCTGAATTCCGGTCTCCC
DNA 2: TGGTGGCTACGACGGGATT
B30: AAUAAGG (DNA:RNA)
RNA: B1 RNA with G26A, A30G, U31G
DNA 1: CAATCTGAATTCCGGTCTCCC
DNA 2: TGGTGGCTACGACGGGATT
B31: CGCUACC (DNA:RNA)
RNA: B1 RNA with A25C, U27C, A28U, A30C, U31C
DNA 1: CAATCTGAATTCCGGTCTCCC
DNA 2: TGGTGGCTACGACGGGATT

The target of the test is T1, RBFOX1 RRM. Kind of test: EMSA; HiTS-Eq, 1 nM pool, 10 min; buffer printed only for the single-RNA assays: 10 mM Tris pH 7.5, 150 mM NaCl, 3.4 mM EDTA, 0.001% NP-40, 30 C. To be noted: tags: His6 N-terminal (pET28a); label: 5' 32P. The method, boiled down: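 These values rest on relative association constants, computed from read-count changes of each RNA species versus the control reaction and normalised to the cognate motif. Reads came from free RNA recovered by 8% native PAGE after purified RbFox RRM (wild type or mutant) at increasing concentrations was equilibrated for 10 min in 50 µL with 1 nM of a 5′-radiolabelled pool with 7 randomized nucleotides and DNA-annealed flanks.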
Take B1: the binding signal was 0.00281 KA relative to UGCAUGU.

With B2, the binding signal was 0.00232 KA relative to UGCAUGU.

Take B3: the binding signal was 0.0259 KA relative to UGCAUGU.

Regarding B4, the binding signal is 0.00956 KA relative to UGCAUGU.

Consider B5, for which the binding signal was 0.0128 KA relative to UGCAUGU.

For the molecule B6, the binding signal was 0.00212 KA relative to UGCAUGU.

In the case of B7, the binding signal is 0.00742 KA relative to UGCAUGU.

As to B8, the binding signal was 0.00892 KA relative to UGCAUGU.

Turning to B9, the binding signal is 0.0145 KA relative to UGCAUGU.

Consider B10, for which the binding signal was 0.00352 KA relative to UGCAUGU.

As to B11, the binding signal was 0.005 KA relative to UGCAUGU.

In the case of B12, the binding signal is 0.00102 KA relative to UGCAUGU.

On to B13, for which the binding signal was 0.0108 KA relative to UGCAUGU.

For B14, the binding signal is 0.00305 KA relative to UGCAUGU.

As for B15, the binding signal was 0.0151 KA relative to UGCAUGU.

As for B16, the binding signal is 0.0098 KA relative to UGCAUGU.

As for B17, the binding signal was 0.0117 KA relative to UGCAUGU.

B18: the binding signal is 0.0127 KA relative to UGCAUGU.

For B19, the binding signal was 0.00887 KA relative to UGCAUGU.

Take B20: the binding signal was 0.00333 KA relative to UGCAUGU.

In the case of B21, the binding signal was 0.00269 KA relative to UGCAUGU.

On to B22, for which the binding signal is 0.000595 KA relative to UGCAUGU.

Regarding B23, the binding signal is 0.0117 KA relative to UGCAUGU.

On to B24, for which the binding signal is 0.0184 KA relative to UGCAUGU.

B25: the binding signal is 0.00678 KA relative to UGCAUGU.

For B26, the binding signal was 0.0127 KA relative to UGCAUGU.

For B27, the binding signal was 0.000251 KA relative to UGCAUGU.

For the molecule B28, the binding signal was 0.00804 KA relative to UGCAUGU.

Turning to B29, the binding signal is 0.0146 KA relative to UGCAUGU.

With B30, the binding signal was 0.00459 KA relative to UGCAUGU.

For the molecule B31, the binding signal was 0.00834 KA relative to UGCAUGU.
